56 variants from the RNAGym collection of RNA variant scans (doi:10.7554/elife.90254) can be followed below.

The source gives no read counts; variants with many changes may rest on few reads.

To fix the notation:
B1: LINE1-mini (parent)
chain: GGCAGAGCUCAACACAGCGUGGCAAAGUGGCUGUGGCUAGACUGCC

The variants in this series derive from B1. Nature of the series: self-cleavage, relative activity (ratio to wild type); higher = more cleavage; in vitro, sequencing; the parent is a self-cleaving ribozyme.
For GGCAGAGCUCACAACAGCGUGGCAAAGUGGCUGUGGCUAGGCUGCC [A12C C13A A41G], the self-cleavage came out at 0.04.
With GGCAGAGCACACCACCGCGUGGCAAAGUGGCUGUGGCUAGACUGCC [U9A A12C A16C], the self-cleavage turned out to be 0.03.
Then CGCAGAGCUCAACAGAGCGUGGCAAAGUGGCUGUGGCUAGUCUGCA [G1C C15G A41U C46A], with 0.01.
For GGCAGAGCUCAACACAGCGUGGCAAAGUUGCUGUGGGUAGACUGAC [G29U C37G C45A], the self-cleavage worked out at 0.01.
On to GGCAUAGCUCAUAACAGCGUGACAAAGUGGCUGUGGCUAGUCUGCC [G5U A12U C13A G22A A41U], for which the self-cleavage was 0.06.
For GGCAGAGCUUAAGACAGCGUGGCAAAGUGGCUGUGGCUGGACUGCC [C10U C13G A39G], the self-cleavage worked out at 0.05.
With GGCAGAGCUCAACACAGCGUGACAAAGUGGCUGUGGCUUGAUUGCC [G22A A39U C42U] the figure was 0.13.
For GGCAGAGCUCAACACAGCGUGGCUAAGUGGCUGUGGCUAGACUCAC [A24U G44C C45A], the self-cleavage was 0.07.
Consider GGCAGAGAUCAACACAGCGUGGCAAAAUGGCUGAGGCUAGACUGCC [C8A G27A U34A], for which the self-cleavage came out at 0.05.
Consider UGCAGAGCUCAACACCGCGUGGUAAAGUGGCUGUGGCUAGACUGCA [G1U A16C C23U C46A], for which the self-cleavage stood at 0.02.
For GGCAGAGCUCAACACAGAGAGGCAUGGUGGCUGUGGCUAGACUGCC [C18A U20A A25U A26G], the self-cleavage came out at 2.13.
In the case of GGCAGAGCUCAACCCAGGGUGGCAAAGUGGCUGUGGCUAAACUGCC [A14C C18G G40A], the self-cleavage was 0.29.
For GGCAGAGCUCAAAACAGCUUGGCAAACUGGCUGUGGCUAGACUGCC [C13A G19U G27C], the self-cleavage came to 0.01.
Consider GGCAGAGCUAAACACAGCGUGCCAAAUUGGCUGUGGCUAGACCGCC [C10A G22C G27U U43C], for which the self-cleavage came to 0.
On to AGCAGAGCUCAACACAGCGUGGCAAAGUGGCUUUGGCUACACUGCC [G1A G33U G40C], for which the self-cleavage was found to be 0.06.
Turning to GGCAGAGAUCAACACAGCGUGGCAAAAUGGCUGUGGCUAGACUGUC [C8A G27A C45U], the self-cleavage amounted to 0.65.
With GGCAGAGCUCAACACAGCGGGGCAAAGUGUCUGUGACUAGACUGCC [U20G G30U G36A] the figure was 0.42; with GGCAGAGCUCUACACAGCGUGGCAAAGUGGCUGUGGAUAAACUGCC [A11U C37A G40A], 0.14.
As to GGGGGCGCUCAACACAGCGUGGCAAAGUGGCUGUGGCUAGACUGCC [C3G A4G A6C], the self-cleavage worked out at 0.38.
Regarding GGCAGAGCUCAAAACAGCGUGGAAAAGUGGCUGUGGCUAGACUGCU [C13A C23A C46U], the self-cleavage came to 0.22.
On to GGCAGAGCUCAACACAUCGUGGCAAAGUGUCUGAGGCUAGAUUGCC [G17U G30U U34A C42U], for which the self-cleavage was found to be 0.02.
Then UGCAGAGUUAAACACAGGGAGGCACAGUCGCUGUGGCUAGACUGGU [G1U C8U C10A C18G U20A A25C G29C C45G C46U], with 0.
With GGCAGAGGUUAACACAGCGUGGGAUAGUGGCUGUGGCUAGACUGCC [C8G C10U C23G A25U] the figure was 0.02.
On to GGCAGAGCUCAACACAGCGUGGCAACGUGGCUGUAGCUAGUCUGCC [A26C G35A A41U], for which the self-cleavage came to 0.07.
Then GGGAGAGCUCAACACAGCGUGGCAAAGUCGCUGUGACUAGACUGCC [C3G G29C G36A], with 0.05; and GGCGGAGCUCAACACAGGGGAGCAAAGUGCCUGUGGCUCGACUGCC [A4G C18G U20G G21A G30C A39C], with 0.07.
With GGCAGAGCUCAACACAGCUUGGCAAAGUGGAUGUGGGUAGACUGCC [G19U C31A C37G] the figure was 0.01.
As for GGCAGAGCACAACACAGCGUGUCAAAGUGGCUGUGGCUAGACUAAC [U9A G22U G44A C45A], the self-cleavage came to 0.3.
For the variant GCCAGAGCUAAACACAGGGUGGCAAAGUGGCUGUGGCUAAACUGCA [G2C C10A C18G G40A C46A], the self-cleavage worked out at 0.03.
Take GGCAGAGUUCUAGACAGCGUGGCAAAGUGGCUGUGGAUGGACUGCC [C8U A11U C13G C37A A39G]: the self-cleavage was 0.01.
With GGCAGAGCUCAACACAGCGUUCCAAAGUGGCUAUGGCUAAACUGCC [G21U G22C G33A G40A], the self-cleavage amounted to 0.09.
Turning to GGUAGAGCUCGAGACAGCGAGGAAAAGUGGCUGUGGCUAGACUGCC [C3U A11G C13G U20A C23A], the self-cleavage was 0.03.
Then GGCAGAGCUCAAAACAGCGUAGCAAAGUGGCUGUAGCUAGACCGCC [C13A G21A G35A U43C], with 0.02; and GGCAGAGCUCAACACUGCGUGGCAAAGUGGAUGUGUCUAGACUGCC [A16U C31A G36U], with 0.04.
Take CACAGAGCUCAACACAGCGUGGCAAACUGGCUGUGGCUAGACUGAC [G1C G2A G27C C45A]: the self-cleavage is 0.17.
Then GGCAGAGCUCAACAGAGCGUGGCCAAGUGGCUGUGGCUAGACUUCC [C15G A24C G44U], with 0.03; and GCCCGAGCUCAACACAGCGUGGCGAAGUGGCUGUGGUUAGUCUGCC [G2C A4C A24G C37U A41U], with 0.04; and GGCAGAGCUCAACACAGCUUGGCAAAGUGGCGUUGGCUAGACUGCG [G19U U32G G33U C46G], with 0.03.
Then GGCAGUGUUCAACACAGCGUGGCAAAGUGGGUGUGGCUAGACUGCC [A6U C8U C31G], with 0.69; and GGCAGAGCUCAACACUGCGUGGCAAAGUGGAUGUGGUUAGACUGCC [A16U C31A C37U], with 0.02.
In the case of GGCAGAGCUCAACAAAGCGUGGCAAAGUGGCUGUGGCUAGAGUGAC [C15A C42G C45A], the self-cleavage turned out to be 0.01.
As for AGCAGAGCUCAACCGAGCGGGACAAAGUGGCUGUGGCUAGACUGCC [G1A A14C C15G U20G G22A], the self-cleavage worked out at 0.06.
Regarding GGCAUACCUCAACACAGCGUGGCAAAGUGGCUGUGGCUAGACUGAC [G5U G7C C45A], the self-cleavage came to 0.22.
On to GGCAGAGCUCAAUACAGCGUGGCUAAGUGACUGUGGCUAGCCUGCC [C13U A24U G30A A41C], for which the self-cleavage amounted to 0.04.
With GGCAGAGCUCAACACAGCCGGGCACAGUGGCUGUGGGUAGACUGCC [G19C U20G A25C C37G], the self-cleavage is 0.
Consider GGCAGAUCUAUACACAUCGCGGCAAAGUGGCUGGGGCUAGACUCCC [G7U C10A A11U G17U U20C U34G G44C], for which the self-cleavage worked out at 0.
UGCAGAGCUCAACACAGCGUUGCGAAGUGGCUGUGGCUAGUCUGCC [G1U G21U A24G A41U]: the self-cleavage was found to be 0.08.
For the variant GGCGGAGCUCAACACAGCGUGGCCAAGUGGCUGUGGCUAGACUGCA [A4G A24C C46A], the self-cleavage turned out to be 0.05.
Turning to CGCAGAGCUCACCACAGCGUGGCAAAGUAGCUGUGGCUAGACUGCC [G1C A12C G29A], the self-cleavage came out at 0.01.
As for GGCAGAACUUGACAAAGCGUGGAAAAGUGGCUGUGGCUAGAAUGCC [G7A C10U A11G C15A C23A C42A], the self-cleavage is 0.01.
For the variant GCCAGCGCUCAACACAGCGGGCCAAAGUGGCUGUGGCUAGACUGCC [G2C A6C U20G G22C], the self-cleavage stood at 0.02.
Then GGCAGAGCUCAACACAGCGUAGAGAAGUUGCUGUGGCUAGACUGCC [G21A C23A A24G G29U], with 0.61; and GGCAGCGCUCAACACAGCGUGACAAAGUGGCUGUGGAUAGACUGCC [A6C G22A C37A], with 0.01.
With GGCAAAGCUCAACACAGCGUAGCAAAGUGGCUGUGGCUAGACCGCC [G5A G21A U43C] the figure was 0.1.
Then GGCAGAGCGUAACACAGCGUGGCAAGGUGGCUGUGGCUCGACAGCC [U9G C10U A26G A39C U43A], with 0.01; and GACAGAGCUCUCCACAGCGUGGCAAAGUGGCAUUGGCUAGACUGCC [G2A A11U A12C U32A G33U], with 0.
